Laboratory results: the supplement of paper PMC4967469
The IC50 comes from the fitted curve, where viability falls to half of the control; a fit beyond the top or the lowest dose is shown as a bound at that dose. For AUC the same curve is integrated over the 256-fold range of doses and scaled to a fraction; the more sensitive the line, the further below 1. For some of these results: Where the top dose is marked as inferred, it comes from the curve model; the source does not state it.

Key:
Test in all cases: Viability of human cancer cell lines after 72 h of drug (GDSC screen)
TG101348 = compound: Cc1cnc(Nc2ccc(OCCN3CCCC3)cc2)nc1Nc1cccc(S(=O)(=O)NC(C)(C)C)c1 [TG101348]; settings: top dose 10.24 µM
Experimental: (§1)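 Human cancer cell lines in 384-well plates, medium with 10% serum, drug for 72 h over a 256-fold dose range (nine 2-fold or five 4-fold steps up to the top dose). Adherent lines were fixed and stained with the nucleic acid dye Syto60, suspension lines read with resazurin; signal relative to control wells, capped at 0 and 100%. One two-parameter sigmoid per drug and line, fitted in a mixed model over all curves with the slope shared within a line.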

17-AAG = compound: C=CCNC1=C2C[C@@H](C)C[C@H](OC)[C@H](O)[C@@H](C)/C=C(\C)[C@H](OC(N)=O)[C@@H](OC)/C=C\C=C(/C)C(=O)NC(=CC1=O)C2=O [17-AAG]; settings: top dose 1 µM
Experimental: as §1

Vismodegib = compound: CS(=O)(=O)c1ccc(C(=O)Nc2ccc(Cl)c(-c3ccccn3)c2)c(Cl)c1 [Vismodegib]; settings: top dose 10 µM; top dose inferred
Experimental: as §1

Doxorubicin = compound: COc1cccc2c1C(=O)c1c(O)c3c(c(O)c1C2=O)C[C@@](O)(C(=O)CO)C[C@@H]3O[C@H]1C[C@H](N)[C@H](O)[C@H](C)O1 [Doxorubicin]; settings: top dose 1.024 µM
Experimental: as §1

VX-11e = compound: Cc1cnc(Nc2ccc(F)cc2Cl)nc1-c1c[nH]c(C(=O)N[C@H](CO)c2cccc(Cl)c2)c1 [VX-11e]; settings: top dose 5.12 µM; top dose inferred
Experimental: as §1

BIX02189 = compound: CN(C)Cc1cccc(N=C(c2ccccc2)c2c(O)[nH]c3cc(C(=O)N(C)C)ccc23)c1 [BIX02189]; settings: top dose 20 µM; top dose inferred
Experimental: as §1

OSI-027 = compound: COc1cccc2cc(-c3nc([C@H]4CC[C@H](C(=O)O)CC4)n4ncnc(N)c34)[nH]c12 [OSI-027]; settings: top dose 20 µM
Experimental: as §1

Dimethyloxalylglycine = compound: COC(=O)CNC(=O)C(=O)OC [Dimethyloxalylglycine]; settings: top dose 4000 µM; top dose inferred
Experimental: as §1

CCT018159 = compound: CCc1cc(-c2n[nH]c(C)c2-c2ccc3c(c2)OCCO3)c(O)cc1O [CCT018159]; settings: top dose 10 µM; top dose inferred
Experimental: as §1

UNC1215 = compound: O=C(c1ccc(C(=O)N2CCC(N3CCCC3)CC2)c(Nc2ccccc2)c1)N1CCC(N2CCCC2)CC1 [UNC1215]; settings: top dose 1 µM; top dose inferred
Experimental: as §1

Row | Cell Line | AUC (TG101348) | IC50 (TG101348) [µM] | AUC (17-AAG) | IC50 (17-AAG) [µM] | AUC (Vismodegib) | IC50 (Vismodegib) [µM] | AUC (Doxorubicin) | IC50 (Doxorubicin) [µM] | AUC (VX-11e) | IC50 (VX-11e) [µM] | AUC (BIX02189) | IC50 (BIX02189) [µM] | AUC (OSI-027) | IC50 (OSI-027) [µM] | AUC (Dimethyloxalylglycine) | IC50 (Dimethyloxalylglycine) [µM] | AUC (CCT018159) | IC50 (CCT018159) [µM] | AUC (UNC1215) | IC50 (UNC1215) [µM]
1 | WM793B (melanoma, adherent) | 0.787 | 4.96 | 0.384 | 0.029 | 0.934 | > 10 | 0.269 | 0.013 | 0.926 | > 5.12 | 0.954 | > 20 | 0.46 | 0.958 | 0.324 | 76.3 | 0.895 | > 10 | 0.98 | > 1
2 | PSN1 (pancreas, adherent) | 0.812 | 4.43 | 0.458 | 0.0488 | 0.965 | > 10 | 0.254 | 0.0146 | 0.203 | 0.0516 | 0.921 | > 20 | 0.635 | 2.76 | 0.931 | > 4000 | 0.827 | 4.86 | 0.982 | > 1
3 | HN (head and neck, adherent) | 0.96 | > 10.2 | 0.47 | 0.0519 | 0.933 | > 10 | 0.769 | 0.364 | 0.989 | > 5.12 | 0.989 | > 20 | 0.982 | > 20 | 0.829 | 2290 | 0.831 | 5.8 | 0.978 | > 1
4 | PC-3 [JPC-3] (lung adenocarcinoma, adherent) | 0.831 | 9.67 | 0.94 | > 1 | 0.98 | > 10 | 0.769 | 0.516 | 0.957 | > 5.12 | 0.957 | > 20 | 0.461 | 0.944 | 0.285 | 49.9 | 0.884 | > 10 | 0.979 | > 1
5 | NCI-H211 (small cell lung carcinoma, adherent) | 0.649 | 1.63 | 0.875 | 0.933 | 0.979 | > 10 | 0.448 | 0.0463 | 0.965 | > 5.12 | 0.925 | > 20 | 0.172 | 0.132 | 0.544 | 328 | 0.984 | > 10 | 0.967 | > 1
6 | DEL (lymphoid neoplasm, suspension) | 0.621 | 1.27 | 0.804 | 0.379 | 0.962 | > 10 | 0.414 | 0.0392 | 0.922 | > 5.12 | 0.963 | > 20 | 0.235 | 0.265 | 0.269 | 65.4 | 0.887 | 7.12 | 0.991 | > 1
7 | PCI-15A (head and neck, adherent) | 0.908 | > 10.2 | 0.823 | 0.598 | 0.98 | > 10 | 0.645 | 0.161 | 0.987 | > 5.12 | 0.98 | > 20 | 0.687 | 4.19 | 0.905 | > 4000 | 0.881 | > 10 | 0.979 | > 1
8 | HDLM-2 (Hodgkin lymphoma, suspension) | 0.989 | > 10.2 | 0.853 | 0.759 | 0.965 | > 10 | 0.828 | 0.618 | 0.989 | > 5.12 | 0.989 | > 20 | 0.908 | > 20 | 0.775 | 1560 | 0.942 | > 10 | 0.984 | > 1
9 | BB30-HNC (head and neck, adherent) | 0.875 | 9.7 | 0.465 | 0.0502 | 0.973 | > 10 | 0.327 | 0.0214 | 0.893 | > 5.12 | 0.949 | > 20 | 0.503 | 1.28 | 0.432 | 164 | 0.774 | 3.84 | 0.984 | > 1
10 | BFTC-905 (bladder, adherent) | 0.862 | 6.82 | 0.784 | 0.363 | 0.959 | > 10 | 0.262 | 0.0151 | 0.82 | 2.42 | 0.978 | > 20 | 0.651 | 3.06 | 0.654 | 624 | 0.939 | > 10 | 0.99 | > 1
11 | MFH-ino (soft tissue, adherent) | 0.929 | > 10.2 | 0.7 | 0.255 | 0.983 | > 10 | 0.171 | 0.00517 | 0.957 | > 5.12 | 0.968 | > 20 | 0.691 | 4.74 | 0.626 | 595 | 0.874 | > 10 | 0.981 | > 1
12 | ST486 (Burkitt lymphoma, suspension) | 0.63 | 1.39 | 0.978 | > 1 | 0.971 | > 10 | 0.272 | 0.0157 | 0.836 | 2.85 | 0.634 | 2.79 | 0.275 | 0.314 | 0.319 | 83.6 | 0.951 | > 10 | 0.987 | > 1
13 | EB-3 (Burkitt lymphoma, suspension) | 0.784 | 5.14 | 0.983 | > 1 | 0.983 | > 10 | 0.866 | > 1.02 | 0.92 | > 5.12 | 0.781 | 9.77 | 0.125 | < 0.0781 | 0.261 | 45.8 | 0.947 | > 10 | 0.955 | > 1
14 | T-T (oesophagus, adherent) | 0.851 | 7.81 | 0.505 | 0.0644 | 0.979 | > 10 | 0.631 | 0.147 | 0.931 | > 5.12 | 0.966 | > 20 | 0.86 | 16.6 | 0.537 | 315 | 0.924 | > 10 | 0.986 | > 1
15 | NCI-H2135 (non-small cell lung carcinoma, adherent) | 0.873 | 9.3 | 0.991 | > 1 | 0.988 | > 10 | 0.683 | 0.204 | 0.437 | 0.216 | 0.895 | > 20 | 0.432 | 0.822 | 0.603 | 474 | 0.986 | > 10 | 0.99 | > 1
16 | NCI-H1703 (lung adenocarcinoma, adherent) | 0.572 | 1.05 | 0.361 | 0.0237 | 0.973 | > 10 | 0.622 | 0.15 | 0.979 | > 5.12 | 0.914 | > 20 | 0.426 | 0.748 | 0.75 | 1570 | 0.938 | > 10 | 0.979 | > 1
17 | MEG-01 (chronic myeloid leukaemia, suspension) | 0.581 | 1.05 | 0.952 | > 1 | 0.94 | > 10 | 0.678 | 0.195 | 0.568 | 0.486 | 0.696 | 4.28 | 0.318 | 0.402 | 0.597 | 454 | 0.947 | > 10 | 0.983 | > 1
18 | NCI-SNU-16 (stomach, suspension) | 0.947 | > 10.2 | 0.81 | 0.452 | 0.981 | > 10 | 0.982 | > 1.02 | 0.991 | > 5.12 | 0.99 | > 20 | 0.965 | > 20 | 0.952 | > 4000 | 0.988 | > 10 | 0.986 | > 1
19 | H3255 (lung adenocarcinoma, adherent) | 0.944 | > 10.2 | 0.648 | 0.174 | 0.98 | > 10 | 0.563 | 0.0985 | 0.973 | > 5.12 | 0.973 | > 20 | 0.767 | 8.85 | 0.857 | > 4000 | 0.935 | > 10 | 0.981 | > 1
20 | MEL-JUSO (melanoma, adherent) | 0.838 | 8.14 | 0.312 | 0.0173 | 0.984 | > 10 | 0.3 | 0.0162 | 0.746 | 1.78 | 0.959 | > 20 | 0.478 | 1.08 | 0.533 | 310 | 0.942 | > 10 | 0.982 | > 1
21 | DJM-1 (skin, adherent) | 0.956 | > 10.2 | 0.881 | > 1 | 0.961 | > 10 | 0.582 | 0.107 | 0.972 | > 5.12 | 0.968 | > 20 | 0.884 | > 20 | 0.484 | 227 | 0.894 | > 10 | 0.986 | > 1
22 | SK-UT-1 (soft tissue, adherent) | 0.945 | > 10.2 | 0.422 | 0.039 | 0.988 | > 10 | 0.285 | 0.0168 | 0.989 | > 5.12 | 0.985 | > 20 | 0.414 | 0.741 | 0.725 | 1010 | 0.806 | 4.54 | 0.988 | > 1
23 | NCI-H647 (non-small cell lung carcinoma, adherent) | 0.64 | 1.59 | 0.344 | 0.0225 | 0.981 | > 10 | 0.635 | 0.154 | 0.96 | > 5.12 | 0.9 | > 20 | 0.373 | 0.549 | 0.478 | 217 | 0.841 | 7.45 | 0.983 | > 1
24 | BICR22 (head and neck, adherent) | 0.9 | > 10.2 | 0.518 | 0.0704 | 0.96 | > 10 | 0.813 | 0.659 | 0.971 | > 5.12 | 0.983 | > 20 | 0.934 | > 20 | 0.641 | 654 | 0.928 | > 10 | 0.98 | > 1
25 | DSH1 (bladder, adherent) | 0.924 | > 10.2 | 0.452 | 0.0464 | 0.987 | > 10 | 0.676 | 0.193 | 0.972 | > 5.12 | 0.97 | > 20 | 0.799 | 9.14 | 0.366 | 108 | 0.79 | 4.23 | 0.988 | > 1
26 | IST-SL1 (small cell lung carcinoma, semi-adherent) | 0.709 | 2.53 | 0.911 | > 1 | 0.987 | > 10 | 0.804 | 0.53 | 0.971 | > 5.12 | 0.874 | > 20 | 0.301 | 0.338 | 0.589 | 442 | 0.921 | > 10 | 0.972 | > 1
